Assay results from PubChem BioAssay AID488969 (Vanderbilt High Throughput Screening Facility, 2010).
Over roughly 110,000 compounds, “z-score” has its median near -0.1; the highest 2% begin near 2. This is one part of the list.

The molecules below were run against Metabotropic glutamate receptor 8 (Rattus norvegicus) (UniProt P70579) (assay: mGluR8 Gi/Go-coupled signaling modulation – cell-based, rat, thallium flux, HTS, primary screen (AID 488969)). Details: HEK293 rat mGluR8, GIRK (G protein-gated inwardly rectifying potassium channel) thallium flux, FluoZin2; at 10 µM; stronger effect = higher value; submaximal glutamate (EC20) added with thallium.
UniProt P70579, sequence (P70579 whole entry, looked up): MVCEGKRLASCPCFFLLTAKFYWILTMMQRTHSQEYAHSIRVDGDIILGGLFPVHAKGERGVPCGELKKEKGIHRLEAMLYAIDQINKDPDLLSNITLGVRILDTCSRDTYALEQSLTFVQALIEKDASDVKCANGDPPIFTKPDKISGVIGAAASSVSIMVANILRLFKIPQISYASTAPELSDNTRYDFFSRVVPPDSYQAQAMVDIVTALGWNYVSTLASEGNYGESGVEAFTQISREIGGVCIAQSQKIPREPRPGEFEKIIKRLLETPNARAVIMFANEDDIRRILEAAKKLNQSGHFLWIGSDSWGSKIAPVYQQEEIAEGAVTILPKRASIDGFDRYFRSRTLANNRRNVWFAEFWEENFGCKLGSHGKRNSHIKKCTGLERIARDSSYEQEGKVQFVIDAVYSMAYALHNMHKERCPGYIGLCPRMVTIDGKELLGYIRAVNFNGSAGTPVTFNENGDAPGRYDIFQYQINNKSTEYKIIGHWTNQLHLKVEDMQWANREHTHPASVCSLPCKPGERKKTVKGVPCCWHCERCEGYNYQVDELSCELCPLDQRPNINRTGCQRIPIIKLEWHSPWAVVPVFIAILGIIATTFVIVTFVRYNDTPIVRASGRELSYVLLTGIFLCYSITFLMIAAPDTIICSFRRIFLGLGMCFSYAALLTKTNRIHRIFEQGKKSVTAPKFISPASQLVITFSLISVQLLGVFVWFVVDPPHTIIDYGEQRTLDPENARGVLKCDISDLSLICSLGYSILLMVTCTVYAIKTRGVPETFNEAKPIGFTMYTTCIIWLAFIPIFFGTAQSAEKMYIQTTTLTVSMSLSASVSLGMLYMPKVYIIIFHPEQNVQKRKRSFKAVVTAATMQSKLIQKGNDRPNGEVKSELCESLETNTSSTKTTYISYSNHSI
`COCCCn1c(SCc2nc3ccccc3c(=O)[nH]2)nc2ccccc2c1=O` gave a z-score of 0.022. In the case of `O=C(CCc1ccccc1)NCCC1=CCCCC1`, the z-score is reported as -0.00711. `CCOC(=O)c1sc2cc([N+](=O)[O-])cc(SCC(=O)OC)c2c1N` showed a z-score of 0.252. Molecule `O=c1[nH]c(NNC(=S)NCc2ccccc2)nc2c1C1(CCCCC1)Cc1ccccc1-2` has a z-score of -0.00601. `COc1ccc(C2N3CC4(C)CN2CC(C)(C3)C4=O)cc1OC` (stereo not given) gave a z-score of -0.431. With `C=CCOc1ccc(C2CC(C)=NN2c2ccccc2)cc1` (stereo not given) the z-score was -0.214. For `Cc1sc2nc(SCC(=O)NCCO)n(C)c(=O)c2c1C`, the z-score was 0.0482. Molecule `Cc1cc(C)c(C(=O)COC(=O)Cn2cnnn2)cc1C` has a z-score of 0.975. Work on `Cc1onc(-c2c(F)cccc2Cl)c1C(=O)OCC(=O)NC(c1ccccc1)c1ccccc1` yielded a z-score of 0.444. `O=C(Nn1cnnc1)c1ccccc1-c1ccccc1` was tested, and the z-score was 0.33. `Cc1ccc(-c2cc(C(=O)NCc3ccccn3)c3ccccc3n2)cc1` showed a z-score of -0.475. Work on `CCNc1ccc(S(=O)(=O)C(F)(F)F)cc1NC(=O)C12CCC(CC1)C2` yielded a z-score of 0.397. `Cc1ccc(NC(=O)c2ccccc2OCC(=O)c2ccc(F)cc2)cc1` was tested, and the z-score was 0.073. `CCCCC(=O)NCCc1cc2c(OC)ccc(OC)c2[nH]c1=O` was tested, and the z-score was 0.0917. Work on `Nc1cccc(C(=O)OCC(=O)Nc2cccc3c2C(=O)c2ccccc2C3=O)c1` yielded a z-score of -0.135. Molecule `C/C(=N\NC(=O)c1ccco1)c1cc2ccccc2o1` has a z-score of 0.664. For `C=C(Br)Cn1c(CCCC)nc2ccccc21`, the z-score was 0.0993. In the case of `COc1ccc(NC(=O)c2cc(-c3ccccc3)nc3c2c(C)nn3-c2ccccc2)c(OC)c1`, the z-score is reported as -0.458. `COc1ccccc1NC(=O)CC(NCCN(C)C)C(=O)O` (stereo not given) showed a z-score of -0.0257. In the case of `O=C(c1ccco1)N1CCN(c2cc(C(F)(F)F)nc3ncnn23)CC1`, the z-score is reported as 1.33. With `CCCc1[nH]n(-c2nc3ccccc3s2)c(=O)c1C=NCCN1CCOCC1` the z-score was -2.51. With `COc1ccc(OCC(O)CN2CCCCC2)cc1` (stereo not given) the z-score was 0.504. `CN(C(=O)CSc1nnc(N)s1)c1c(N)n(Cc2ccccc2)c(=O)[nH]c1=O` showed a z-score of 0.432. Molecule `Cc1ccc(-n2c(=O)[nH]cc(C(=O)N3CCc4ccccc43)c2=O)cc1` has a z-score of 0.365. `CC(=O)N1CCc2cc(C(=O)CN3CCCCC3)ccc21` showed a z-score of 0.732. With `CCCc1nc2c(sc3nc4c(cc32)COC(C)(C)C4)c(=O)n1Cc1ccco1` the z-score was -1.21. In the case of `COc1ccc(/C=C/C(O)=C2/C(=O)N(C)C3(C)CC2c2ccccc2O3)cc1` (stereo not given), the z-score is reported as -1. Molecule `CC(C)c1ccc(/C=N/NC(=O)c2c(Cl)cnn2C)cc1` has a z-score of -0.478. In the case of `O=C(CCc1[nH]c2ccccc2c1Sc1ccccc1)N(CCO)CCO`, the z-score is reported as -0.0492. Work on `N#CC1=C(N)Oc2n[nH]c(-c3ccccc3)c2C1c1cccnc1` (stereo not given) yielded a z-score of -0.183. With `Cc1[nH]nc2ncc(C(=O)c3cc(F)ccc3O)cc12` the z-score was 0.0218. For `CC1CN(c2oc(COc3ccc(Cl)cc3Cl)nc2C#N)CC(C)O1` (stereo not given), the z-score was -0.0172. `O=C(COc1cccc(Cl)c1)NNC(=S)Nc1ccccc1` showed a z-score of 0.593. `Cc1ccc(C2=N/C(=C\N(C)C)C(=O)O2)cc1` showed a z-score of 0.524. `CCNC(=S)N/N=C/c1cn(Cc2ccc(F)cc2)c2ccccc12` showed a z-score of -0.181. `O=C(O)C1C2C=CC(O2)C1C(=O)Nc1ccccc1C(F)(F)F` (stereo not given) showed a z-score of -0.222. For `O=C(CNC(=O)c1ccccc1)OCC(=O)N1c2ccccc2Sc2ccccc21`, the z-score was -0.181. `O=C(C1CCC1)N1CCc2cc(S(=O)(=O)N3CCc4ccccc4C3)ccc21` gave a z-score of 0.525. Molecule `Cc1noc(C)c1S(=O)(=O)Nc1ccc(C(=O)NCCc2ccccc2)cc1` has a z-score of 0.313. Work on `Cc1cccc(CN2CCc3c(OCC(=O)N4CCCc5ccccc54)cccc3C2=O)c1` yielded a z-score of -0.172. `CC(=O)c1c(C(C)=O)c(C)n(-c2ccc(N)cc2)c1C` showed a z-score of -0.306. In the case of `CCOc1cc(-c2nc(-c3ccccc3)c(-c3cc([N+](=O)[O-])ccc3C)[nH]2)ccc1O`, the z-score is reported as 0.424. With `CCOc1ccc(N(CC(=O)NC2CCCCC2)C(=O)CNC(=O)c2ccco2)cc1` the z-score was -0.0304. `CN1C(=S)N(c2ccccc2)C(=O)/C1=C/c1cccs1` gave a z-score of -0.123. `COc1ccccc1C(=O)NCCn1cc(SCC(=O)NCc2ccco2)c2ccccc21` showed a z-score of -0.281. In the case of `CCNc1nc(N)c(C(=C(C#N)C#N)c2ccccc2)s1`, the z-score is reported as -0.29. `Cc1ccccc1NC(=O)Nc1cc(S(N)(=O)=O)ccc1C` showed a z-score of -0.406. For `CCc1nnc2n1N=C(c1ccc(OC)cc1)CS2`, the z-score was -0.703. `N#CCCn1nc(-c2ccc(Cl)cc2)cc1Nc1ccccc1NC(=O)C(F)(F)F` showed a z-score of 1.83. With `O=C(Nc1ccc2c(c1)OCO2)N1CCOCC1` the z-score was 0.476. In the case of `CCCc1nnc(-c2ccc(OC)cc2)o1`, the z-score is reported as -0.542. Work on `COc1ccc2cc(S(=O)(=O)NCCCN3CCOCC3)ccc2c1` yielded a z-score of -0.0146. `Cc1cccc(C)c1NC(=O)C1(NC(=O)C2CCC(=O)N2)CCCCC1` (stereo not given) showed a z-score of 0.117. `O=C(NC1CCCC1)c1cc2c(ccc3ccccc32)o1` was tested, and the z-score was 0.185. In the case of `CC(C)c1ccc(C(=O)N2CCCN(C(=O)c3ccc(C(C)C)cc3)CC2)cc1`, the z-score is reported as -0.119. `S=c1[nH]nc(-c2ccco2)n1/N=C/c1ccc(Cl)cc1` was tested, and the z-score was -0.0483. With `S=c1[nH]nc(-c2cccnc2)n1Cc1ccccc1` the z-score was 0.101. In the case of `O=C(Nc1nc(-c2cccc([N+](=O)[O-])c2)cs1)C(c1ccccc1)c1ccccc1`, the z-score is reported as -0.0572. For `O=C1Nc2cc(Cl)c(Cl)cc2N(O)N1c1ccccc1`, the z-score was 0.157. `CCCN=C1NC(=O)C(CC(=O)NCCc2ccc(OC)c(OC)c2)S1` (stereo not given) was tested, and the z-score was -0.198. Molecule `COc1ccc(-n2cc(C(=O)Nc3cc([N+](=O)[O-])ccc3OC)c3ccccc3c2=O)cc1` has a z-score of -0.173. For `Cc1cccc(C)c1Nc1c(-c2ccsc2)nc2ncccn12`, the z-score was -0.464. With `O=C(COC(=O)c1cc(-c2cccs2)nn1-c1ccccc1)Nc1cc([N+](=O)[O-])ccc1Cl` the z-score was -0.0333. With `Cc1cc(C)cc(NC2=NC3(CCCCC3)N=C(N)N2)c1` the z-score was 0.506. `COc1ccccc1C(=O)NCC(=O)N/N=C/c1cc(Br)ccc1OC(=O)/C=C\c1ccco1` gave a z-score of -0.122. For `Cn1c(C(=O)OCC(=O)NCc2ccco2)cc2sccc21`, the z-score was -0.0415. `CCOC(=O)NC(NCC(O)c1ccccc1)(C(F)(F)F)C(F)(F)F` (stereo not given) was tested, and the z-score was 0.575. Molecule `COc1ccc2[nH]cc(/C=C(/C#N)S(=O)(=O)c3ccccc3)c2c1` has a z-score of -0.65. Molecule `COc1ccc(Cn2c(=O)[nH]c3cc(C(=O)Nc4ccc(N5CCN(C)CC5)cc4)ccc32)cc1` has a z-score of 0.00534. In the case of `CC(Sc1nnc(C(F)(F)F)n1C)C(=O)NC(N)=O` (stereo not given), the z-score is reported as 1.15.
